Results from paper PMC4336329 (PLoS ONE, 2015).
In all, about 310,000 compounds went through this assay and about 14,000 (4.5%) showed an effect of 50% or more. Effects have a minus sign here. The list shows a part of the results.

target: human ether-à-go-go-related gene (hERG) potassium channel (human, UniProt Q12809); assay: primary screen, population patch clamp on CHO cells stably expressing hERG
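Note: peak tail current of the secondary pulse compared with the same well before compound.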

human ether-à-go-go-related gene (hERG) potassium channel, sequence (Q12809 whole entry, looked up): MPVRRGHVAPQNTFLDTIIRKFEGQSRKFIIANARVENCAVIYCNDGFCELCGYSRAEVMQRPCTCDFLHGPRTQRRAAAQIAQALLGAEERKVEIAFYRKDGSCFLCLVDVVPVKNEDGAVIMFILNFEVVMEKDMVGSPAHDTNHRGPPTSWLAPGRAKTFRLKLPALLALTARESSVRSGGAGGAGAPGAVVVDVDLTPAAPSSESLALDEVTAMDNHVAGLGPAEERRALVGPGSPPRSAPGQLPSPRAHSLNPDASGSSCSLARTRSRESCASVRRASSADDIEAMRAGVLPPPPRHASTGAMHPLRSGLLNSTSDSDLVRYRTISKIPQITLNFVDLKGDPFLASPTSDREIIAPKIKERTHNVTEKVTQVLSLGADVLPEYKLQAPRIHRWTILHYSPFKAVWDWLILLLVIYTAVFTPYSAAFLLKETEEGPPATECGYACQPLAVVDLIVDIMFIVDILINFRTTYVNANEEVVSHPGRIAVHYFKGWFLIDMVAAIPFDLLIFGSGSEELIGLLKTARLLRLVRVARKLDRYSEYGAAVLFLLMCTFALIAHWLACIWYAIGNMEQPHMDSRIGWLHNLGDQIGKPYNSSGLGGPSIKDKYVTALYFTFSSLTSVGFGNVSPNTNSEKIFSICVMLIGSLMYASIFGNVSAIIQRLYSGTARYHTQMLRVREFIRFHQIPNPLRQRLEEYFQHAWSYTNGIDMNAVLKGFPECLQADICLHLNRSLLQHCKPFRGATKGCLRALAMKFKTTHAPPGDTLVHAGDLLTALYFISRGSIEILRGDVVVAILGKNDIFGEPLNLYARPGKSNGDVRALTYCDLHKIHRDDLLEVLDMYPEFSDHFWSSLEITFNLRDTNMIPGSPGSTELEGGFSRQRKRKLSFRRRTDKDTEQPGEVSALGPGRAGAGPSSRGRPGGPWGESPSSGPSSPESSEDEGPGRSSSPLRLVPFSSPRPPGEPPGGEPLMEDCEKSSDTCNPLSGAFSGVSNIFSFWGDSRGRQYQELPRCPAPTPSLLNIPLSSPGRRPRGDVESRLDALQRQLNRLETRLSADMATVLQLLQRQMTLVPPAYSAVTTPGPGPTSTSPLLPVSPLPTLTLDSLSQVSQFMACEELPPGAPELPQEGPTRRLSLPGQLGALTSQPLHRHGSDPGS

Row | Compound | hERG current change (%, negative = inhibition) at 10uM
1 | O=C(Nc1ccc2c(c1)OCO2)c1ccc(S(=O)(=O)NCC2CCCO2)cc1 (centres unmarked) | 2%
2 | COC(=O)c1ccc(NC(=O)c2ccccc2NS(C)(=O)=O)cc1 | 19.3%
3 | COc1ccc(-n2c3c(cc(C(=O)NNc4ccccc4C)c2=O)C(=O)CC(C)(C)C3)cc1 | 17.7%
4 | COC(=O)Cc1c(O)ccn(C2CC2)c1=O | 17.5%
5 | COc1ccc(NS(=O)(=O)c2cccc(NC(=O)c3ccc(Cl)nc3)c2)cc1 | 3.36%
6 | CC(C)(C)OC(=O)NCCCCCNC(=O)c1[nH]cnc1C(=O)N[C@@H](CCCCNC(=O)OC(C)(C)C)C(=O)OC(C)(C)C | 17.5%
7 | O=c1[nH]c2ccccc2c2nc3ccccn3c12 | -10.4%
8 | CCC(=O)Nc1cc(C(=O)O)ccc1Sc1ccc(C)cc1 | 4.85%
9 | CCSc1nnc(NC(=O)C(CC)(C(F)(F)F)C(F)(F)F)s1 | 17.7%
10 | CCOc1ccc(-n2c(O)c(C=NCCN(CC)CC)c(=O)[nH]c2=O)cc1 | 16.8%
11 | O=C(CN1C(=O)c2cccnc2Oc2ccc(Cl)cc21)N1CCCC1 | 6.5%
12 | COc1ccc(-c2noc(CNC(=O)CCCN3C(=O)[C@H]4CC=CC[C@H]4C3=O)n2)cc1 | 12.7%
13 | CC1CCCCN1C(=O)COC(=O)c1ccc2c(c1)C(=O)N(Cc1ccco1)C2=O (centres unmarked) | -34.9%
14 | CCOC(=O)CSc1nc2ccc(N)cc2s1 | -1.21%
15 | Cc1cccc2cc(C(c3nnnn3CC3CCCO3)N3CCc4ccccc4C3)c(=O)[nH]c12 (centres unmarked) | -21.9%
16 | CC1CCCCC1NC(=O)C(Cc1ccccc1)NS(=O)(=O)c1cccs1 (centres unmarked) | -13.6%
17 | CCOC(=O)C1CCN(C(=O)Nc2ccc3snnc3c2)CC1 | -1.57%
18 | COc1ccc2c(c1OC)C(=O)OC2Nn1cncn1 (centres unmarked) | 5.89%
19 | COc1ccc(OCc2cc(C(=O)NC(C)Cn3cncn3)no2)c(Cl)c1 (centres unmarked) | -2.32%
20 | CC(C)(C)C1N=C(c2ccc3ccccc3c2)OC1=O (centres unmarked) | 13.7%
21 | COc1ccc(C)cc1Nc1cc(C)nc2ncnn12 | 4.53%
22 | Cc1ccc2cc(C)c(N3CCC(C)CC3)nc2c1 | 11.6%

Row | Compound | hERG current change (%, negative = inhibition) at 10uM
23 | c1ccc([C@H]2CN3C(=N2)Sc2ccccc23)cc1 | -19.2%
24 | CCN(CC)c1ccc(C(=O)NNC(=O)CCl)cc1.Cl | 2.07%
25 | CCCn1nnnc1NC(=O)c1ccc(C)cc1Cl | 5.02%
26 | Cc1cc2cc(CCNC(=O)CC(C)(C)C)c(=O)[nH]c2cc1C | 7.53%
27 | COc1ccc(CCC(=O)N2CCCSC2=Nc2ccc(C(C)=O)cc2)cc1 | -7.97%
28 | COc1ccc(CNC(=O)C2CCCN(c3nc4ccccc4o3)C2)c(OC)c1 (centres unmarked) | -24.8%
29 | COc1ccc(C2NC(C(=O)O)Cc3c2[nH]c2ccccc32)cc1CN1CCN(c2ccc(F)cc2)CC1 (centres unmarked) | -11.6%
30 | COc1ccc(C(=O)COc2ccc(F)cc2)c(O)c1C | 16%
31 | N#Cc1ccc(S(=O)(=O)N2CCN(CC(=O)NCC3(N4CCOCC4)CCCCC3)CC2)cc1 | -15.8%
32 | CS(=O)(=O)c1cnc2c(S(=O)(=O)c3ccccc3)cnn2c1N | -2.94%
33 | COc1ccc(-n2nc(C(=O)NCC(=O)NCc3ccccc3OC)c3ccccc3c2=O)c(OC)c1 | 7.07%
34 | CCOC(=O)c1c(C)[nH]c(C(=O)COC(=O)C2CC(=O)N(Cc3ccccc3)C2)c1C (centres unmarked) | -18.2%
35 | COc1ccc(CCNC(=O)c2cc(-c3ccncc3)nc3c(Cl)cccc23)cc1OC | -66.9%
36 | CC1CN(C)C(C)CC1OC(=O)C(c1ccccc1)c1ccccc1 (centres unmarked) | -73.7%
37 | Cl.OC(COCC1COc2ccccc2O1)CN1CCN(c2ccc(F)cc2)CC1 (centres unmarked) | -79.3%
38 | Cc1ccc(S(=O)(=O)N(CC(=O)Nc2ccccc2C(=O)O)c2ccc(Cl)cc2)cc1 | 13.6%
39 | CCN1C=C(Cc2ccc(OC)cc2)C2=C(C1)C(c1ccc(OC)cc1)C(C#N)=C(N)O2 (centres unmarked) | -20.4%
40 | CN(CC(=O)Nc1ccccc1Br)CC(=O)Nc1ccccc1-c1ccccc1 | -42%
41 | O=C(CCc1ccccc1)NNC(=O)Nc1ccc(Br)cc1 | -15.5%
42 | COc1oc(-c2ccccc2C)nc1C(F)(F)F | 2.37%
43 | O=C(NC1CCCC1)C(c1c(F)cccc1Cl)N(C(=O)c1csnn1)C1CC1 (centres unmarked) | 12.1%
44 | CC1COC(C)(CC(=O)NN2C(=O)c3ccccc3C2=O)O1 (centres unmarked) | 9.76%
